Results published in article PMC4336329 (PLoS ONE, 2015).
The campaign covered roughly 310,000 compounds. About 2,200 (0.71%) showed an effect of 50% or more. The effect is printed as a negative number. The list shows a part of the results.

biological target: human ether-à-go-go-related gene (hERG) potassium channel (human, UniProt Q12809); experiment: primary screen, population patch clamp on CHO cells stably expressing hERG
Sequence (Q12809 whole entry, looked up): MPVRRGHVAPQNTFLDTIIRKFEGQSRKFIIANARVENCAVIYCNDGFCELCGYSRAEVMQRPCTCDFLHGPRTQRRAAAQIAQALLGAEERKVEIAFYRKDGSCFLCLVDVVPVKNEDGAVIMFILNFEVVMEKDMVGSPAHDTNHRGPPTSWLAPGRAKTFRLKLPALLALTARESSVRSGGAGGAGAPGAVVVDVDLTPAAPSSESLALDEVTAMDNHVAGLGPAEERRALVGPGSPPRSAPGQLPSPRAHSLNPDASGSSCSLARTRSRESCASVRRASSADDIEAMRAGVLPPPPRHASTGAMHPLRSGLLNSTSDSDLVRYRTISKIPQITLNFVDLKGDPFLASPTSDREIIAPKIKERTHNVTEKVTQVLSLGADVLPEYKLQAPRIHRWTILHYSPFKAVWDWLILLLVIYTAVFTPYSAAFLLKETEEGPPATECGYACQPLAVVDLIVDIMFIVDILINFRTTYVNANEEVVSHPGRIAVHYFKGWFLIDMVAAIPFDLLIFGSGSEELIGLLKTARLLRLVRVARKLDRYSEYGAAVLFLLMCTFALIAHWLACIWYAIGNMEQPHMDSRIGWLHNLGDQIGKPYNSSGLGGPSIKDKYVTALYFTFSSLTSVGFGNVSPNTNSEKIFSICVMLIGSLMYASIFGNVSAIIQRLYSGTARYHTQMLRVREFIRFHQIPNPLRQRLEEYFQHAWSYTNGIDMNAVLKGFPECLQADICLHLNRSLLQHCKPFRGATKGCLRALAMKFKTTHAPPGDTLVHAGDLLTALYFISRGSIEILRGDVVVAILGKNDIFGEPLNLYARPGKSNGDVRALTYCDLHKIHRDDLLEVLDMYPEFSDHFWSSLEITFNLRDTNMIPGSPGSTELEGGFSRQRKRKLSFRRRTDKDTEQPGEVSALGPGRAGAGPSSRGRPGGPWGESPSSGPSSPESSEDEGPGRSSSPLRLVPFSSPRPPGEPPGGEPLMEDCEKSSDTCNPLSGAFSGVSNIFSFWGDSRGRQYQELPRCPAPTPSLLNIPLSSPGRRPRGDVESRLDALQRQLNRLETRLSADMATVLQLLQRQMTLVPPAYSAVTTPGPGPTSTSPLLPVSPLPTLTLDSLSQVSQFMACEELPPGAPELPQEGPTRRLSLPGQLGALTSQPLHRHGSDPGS

| Structure (SMILES) | hERG current change (%, negative = inhibition) at 1uM [%] |
| --- | --- |
| Cn1c(Cn2c(=O)sc3ccccc32)nnc1SCC(=O)N1CCc2ccccc21 | 0.539 |
| CC1CCN(C(=O)CSc2nnc(CNC(=O)c3ccc(S(=O)(=O)N(C)C)cc3)o2)CC1 | 16.4 |
| Cc1c(-c2ccccc2)c(P(=O)(N2CCOCC2)N2CCOCC2)c2ccccn12 | 10.5 |
| COc1ccc(C(=O)NNC(=O)C(=O)NC(C)c2ccccc2)cc1OC (stereo not shown) | 0.854 |
| CCOC(=O)c1cc(S(=O)(=O)N2CCc3ccccc32)cn1C | 8.9 |
| Cc1ccc(C(=O)N2CCC(Cc3ccccc3)CC2)cc1[N+](=O)[O-] | 7.84 |
| CC1(C)CC(=O)c2cnc(NC(=O)c3ccco3)nc2C1 | 11.3 |
| O=C(N/N=C\c1ccc(Cl)s1)c1cccs1 | 11.8 |
| CCOC(=O)/C(=C/C1=CC(=C/N(C)C)/C(=O)O1)C(C)=O | 10.2 |
| Brc1ccc2ncc(Br)cc2c1 | 15.7 |
| CC(=O)OC1C2CCC1C(N1CCCCC1)CC2.Cl (stereo not shown) | 12 |
| Nc1cc(=O)[nH]c(=O)n1Cc1ccccc1 | 10.9 |
| O=C(Nc1nc(N2C(=O)c3ccccc3C2=O)n(-c2ccccc2)n1)c1ccc(Cl)cc1 | 6.92 |
| O=C(CNC(=S)N(Cc1ccccc1)Cc1cccnc1)NC1CC1 | 1.65 |
| Cc1ccccc1C(=O)Nc1nnc(SC(C)C)s1 | 14.4 |
| CC(C)C(=O)Nc1nnc(SCC(=O)NCC2CCCO2)s1 (stereo not shown) | 5.14 |
| COc1ccc(NS(=O)(=O)c2ccc(N3CCOCC3)c(NC(=O)c3cccc(F)c3)c2)cc1 | -2.11 |
| COc1cc(/C=N/Nc2nc3ccccc3o2)cc(OC)c1O | 12.8 |
| CCOC(=O)N1CCN(C(=O)C2CC(=O)N(c3ccccc3)C2)CC1 (stereo not shown) | 9.88 |
| O=C(Oc1c(Cl)cc(Cl)c2ccccc12)N1CCCCC1 | 6.81 |
| COc1ccccc1NC(=O)c1c(C)oc2c1CCCC2 | 8.91 |
| NC(=O)Cn1nnc(-c2ccc(NC(=O)c3ccc(F)cc3)cc2)n1 | 4.51 |
| COc1ccc(CCn2c(-c3ccc(OC)cc3)nc3c(c(=O)c4ccccc4n3C)c2=O)cc1 | 13.8 |

| Structure (SMILES) | hERG current change (%, negative = inhibition) at 1uM [%] |
| --- | --- |
| CC(C)CC(NC(N)=O)C(=O)OCC(=O)Nc1ccc(OC(F)F)cc1 (stereo not shown) | 2.96 |
| COc1ccc(OC)c(CNc2ccc(F)c(Cl)c2)c1 | 13.7 |
| CC(NC(=O)c1ccco1)c1cccc2ccccc12 (stereo not shown) | 0.0621 |
| CC(C)OC(=O)NCN1C(=O)C2C3C=CC(C3)C2C1=O (stereo not shown) | 14.8 |
| Cn1c(=O)c(C(=O)CSc2ccccc2)c(N)n(Cc2ccccc2)c1=O | 15.7 |
| CC1CCN(S(=O)(=O)c2cccc(C(=O)N(C)C3CCS(=O)(=O)C3)c2)CC1 (stereo not shown) | 13.1 |
| COc1cccc(C2c3[nH]c4ccccc4c3C[C@H]3C(=O)N(C4CC4)CC(=O)N23)c1 (stereo partly shown) | 7.67 |
| COc1ccc(CCN2C(=O)CC(C(N)=O)SC2=Nc2ccc(F)cc2)cc1OC (stereo not shown) | 6.66 |
| CCOC(=O)C1CCCN(c2c(NCCN3CCCCC3CC)c(=O)c2=O)C1 (stereo not shown) | 4.74 |
| CC(C)CNc1c(N)c(=O)oc2ccccc12 | 0.11 |
| Cn1c(CSCc2ccc(Cl)c(Cl)c2)n[nH]c1=S | 6.44 |
| O=C(c1ccccc1)c1ccc(N2CCOCC2)c(F)c1 | 12.3 |
| Cc1ccc(NC(=O)CSc2n[nH]c(C)c2[N+](=O)[O-])cc1 | 7.62 |
| Cn1c(=O)c2c(nc(N/N=C/c3cccnc3)n2Cc2ccc(F)cc2)n(C)c1=O | 14.3 |
| Oc1ccc(NCc2cccs2)cc1 | 4.52 |
| CNC(=O)N(O)C1N(/N=C/c2cccs2)C(=S)SC1(C)C (stereo not shown) | 13.4 |
| CCOc1ncccc1C(=O)OC(C)C(=O)Nc1ccc(CC)cc1 (stereo not shown) | 12.9 |
| Cc1csc(SCC(=O)Nc2cc(C(C)(C)C)nn2-c2ccccc2)n1 | 1.88 |
| CCC1CCCCN1CCCNC(=O)c1cn(CC)c2ccc(S(=O)(=O)N3CCc4ccccc4C3)cc2c1=O (stereo not shown) | 1.2 |
| CC1CN(C(=S)NC(=O)c2ccc([N+](=O)[O-])cc2)CC(C)O1 (stereo not shown) | 5.35 |
| Cc1cnccc1CNC(=O)C1CCC(=O)N(Cc2ccc(Cl)cc2)C1 (stereo not shown) | -6.11 |
| CCOc1ccc(C(C)=O)cc1N1C(=O)C2C(C1=O)C1C=CC2C12CC2 (stereo not shown) | 10.6 |
| COc1cc(N(Cc2ccccc2)Cc2ccccc2)c2ncn(C(C)C)c2c1 | 8.78 |
